Target: viral neuraminidase (NA) (Influenza A virus, UniProt P03468)
Assay: Cell-free anti-neuraminidase assay, influenza A
Assay type: biochemical, influenza virus A/Puerto Rico/8/34 (H1N1)

Chain of UniProt P03468 (P03468 whole entry, looked up): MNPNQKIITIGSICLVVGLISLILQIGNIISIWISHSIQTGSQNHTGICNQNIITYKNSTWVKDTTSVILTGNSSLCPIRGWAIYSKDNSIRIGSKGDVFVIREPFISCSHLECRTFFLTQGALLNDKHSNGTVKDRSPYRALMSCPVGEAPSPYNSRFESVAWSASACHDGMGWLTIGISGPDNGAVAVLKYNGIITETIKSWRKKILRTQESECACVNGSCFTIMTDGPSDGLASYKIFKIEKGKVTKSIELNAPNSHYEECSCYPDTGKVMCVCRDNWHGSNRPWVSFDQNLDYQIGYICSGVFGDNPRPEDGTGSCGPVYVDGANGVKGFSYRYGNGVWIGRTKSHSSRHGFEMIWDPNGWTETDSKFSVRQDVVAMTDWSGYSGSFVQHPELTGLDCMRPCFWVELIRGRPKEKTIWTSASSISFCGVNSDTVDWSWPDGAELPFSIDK

CC1(C)C[C@H]2[C@H]1CC[C@]1(C)ON=C(c3ccc(Cl)cc3)[C@H]1CC[C@@]21CC(c2ccc(Cl)cc2)=NO1 [Compound 25, (3aR,6R,6aS,8aR,10aS)-3,3′-Bis(4-chlorophenyl)-8,8,10a-trimethyl-3a,4,5,6a,7,8,8a,9,10,10a-decahydro-4′H-spiro[cyclobuta [5,6]cyclonona [1,2-d]isoxazole-6,5′-isoxazole]]
IC50: 35.8 µM

Source: publication PMC11545984, “1,3-Dipolar Cycloaddition of Nitrile Oxides and Nitrilimines to (−)-β-Caryophyllene: Stereoselective Synthesis of Polycyclic Derivatives and Their Biological Testing” (International Journal of Molecular Sciences, 2024)
